Test results from publication PMC6212790.
This is one part of the list. At the low end of the ranking the order means little.

molecular target: T1, GST-Rok (full length) (UniProt O34857); assay: protein binding microarray; settings: Rok is a gene silencer of Bacillus subtilis; high values mean tight binding; most listed sequences are background and not binding sites; double strand, one strand shown;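 also: rank score from −0.5 (least bound) to 0.5 (best bound)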
T1 sequence: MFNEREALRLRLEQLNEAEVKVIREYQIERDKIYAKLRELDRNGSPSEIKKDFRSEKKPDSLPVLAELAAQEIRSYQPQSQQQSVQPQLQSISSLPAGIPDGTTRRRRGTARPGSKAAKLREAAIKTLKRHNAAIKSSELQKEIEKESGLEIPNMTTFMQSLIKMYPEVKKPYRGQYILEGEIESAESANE

Row | Sequence | binding signal [E-score]
1 | CACGGCTG | -0.157
2 | CTTGCGTC | -0.102
3 | ATGCACAT | 0.215
4 | ACCCAGGG | -0.309
5 | GGGGGATA | -0.354
6 | ATGGGTAC | -0.0403
7 | TATGCCCA | -0.222
8 | AATTAGAG | 0.157
9 | CATGCTCC | -0.226
10 | CTTCACCC | -0.126
11 | TAATTGCA | 0.157
12 | ATTGTGGG | -0.0544
13 | GGAGCTCC | -0.0169
14 | CAGCAGTA | 0.0249
15 | CTGACGGA | -0.238
16 | GCCAGGCC | -0.244
17 | CCACTAAG | -0.137
18 | ATGCATCG | 0.00495
19 | CGATCGAC | 0.0109
20 | ATAAGCGG | -0.143
21 | CCAATATA | 0.306
22 | AGACACGG | 0.272

Row | Sequence | binding signal [E-score]
23 | CAAGGCCA | -0.323
24 | TGCCAACA | -0.174
25 | ATTGGGGG | -0.251
26 | AATACTCA | 0.174
27 | GCTGAGAA | -0.0856
28 | AAGTGAAT | -0.0107
29 | CCCACTCC | -0.31
30 | CCATTGGA | -0.102
31 | GCCCTCTA | -0.253
32 | ATCCGGGG | -0.298
33 | ACAACATA | 0.0833
34 | AGTCCCTG | -0.255
35 | AGCTAGAA | 0.329
36 | GACTCAGA | -0.109
37 | GATAATGC | 0.248
38 | CTTTGTTA | 0.124
39 | AGGTGGAG | -0.241
40 | CCTGCACG | -0.111
41 | AGGGACCT | -0.364
42 | CAGAGTTA | -0.0506
43 | ATCGTTGG | -0.063
44 | AAGAACCA | -0.0889

Row | Sequence | binding signal [E-score]
45 | TCTCGACA | -0.0144
46 | TAGCAGCA | 0.0346
47 | ATCCCGGA | -0.218
48 | GTAGTACA | 0.236
49 | CAATACTA | 0.261
50 | AAGTGGCC | -0.0526
51 | CAGGTTGC | -0.259
52 | TCACACCA | -0.000143
53 | CATGCTAC | 0.22
54 | GACAACTC | -0.181
55 | AGATTGTG | 0.104
56 | CTTATGGC | -0.0497
57 | AACTTCAC | -0.0432
58 | AGTCCCGA | -0.215
59 | GTCCTAGA | -0.0552
60 | ATTCTTTA | 0.201
61 | CTTACGTC | -0.135
62 | TATCTGCA | 0.102
63 | GTCATGAC | 0.07
64 | GTTCAACA | 0.106
65 | ATCCTTGC | -0.228
66 | CCTAGGGC | -0.314

Row | Sequence | binding signal [E-score]
67 | ATATTAGC | 0.248
68 | GAAGACTA | 0.123
69 | CGTACAAC | 0.103
70 | ATTATGTC | 0.191
71 | CGGCTGTC | -0.298
72 | GTTTGGAA | 0.0901
73 | CTATTAAG | 0.139
74 | CTAAGACC | -0.172
75 | ATATGTTG | 0.16
76 | CACTTTAC | 0.0531
77 | CCCATGCC | -0.427
78 | ACTCCTAG | -0.132
79 | ATAGTGCA | 0.12
80 | AGCCAGAG | -0.173
81 | AGTAATAA | 0.197
82 | CAAGACCA | -0.175
83 | GCAAACCA | -0.161
84 | CGACTTAC | 0.229
85 | GGCACCAA | -0.179
86 | CCGCCTAG | -0.269
